Laboratory results from the RNAGym collection of RNA variant scans (doi:10.1073/pnas.2313332121).
Variants at the background level are over-represented here.

B1: TPR 5TU (parent)
chain: GGAUCUUCUCGAUCUAACAAAAAAGACAAAUCUGCCACAAAGCUUGAGAGCAUCUUCGGAUGCAGAGGCGGCAGCCUUCGGUGGCGCGAUAGCGCCAACGUUCUCAACUAUGACACGCAAAACGCGUGCUCCGUUGAAUGGAGUUUAUCAUG

Variants of: B1
Assay: polymerase ribozyme fitness, log enrichment relative to wild type (log ratio); higher = more active; in vitro selection for triplet polymerase activity
How it was run: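 Streptavidin-bead capture of gel-excised extended constructs, followed by RT-PCR, closed a single triplicate in vitro selection round. That round began by annealing PCR-built, transcribed mutant libraries of each subunit of a heterodimeric triplet polymerase ribozyme with a biotinylated primer, the partner subunit and triplets, then incubating them frozen at −7 °C. After Illumina sequencing of inputs and outputs, genotypes needed ≥10 input reads and ≥1 read per output. Fitness is the base-2 logarithm of genotype enrichment over wild-type enrichment, using inverse-variance-weighted replicate averages.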

Question: With C14A G58C A66U C99U as the variant, how does the “polymerase ribozyme fitness (log ratio)” value read?
Answer: ≤ -4.2

Question: Which “polymerase ribozyme fitness (log ratio)” value does the source give for C14A G58U here?
Answer: -1.88

Question: Which “polymerase ribozyme fitness (log ratio)” value does the source give for C14A G59A U82A G84U here?
Answer: -4.06

Question: For C14A G83C C93U C108A G152A, which “polymerase ribozyme fitness (log ratio)” value is on record?
Answer: ≤ -4.2

Question: For C14A G92U C93U A138C, which “polymerase ribozyme fitness (log ratio)” value is on record?
Answer: ≤ -4.2

Question: With C14A G94A as the variant, how does the “polymerase ribozyme fitness (log ratio)” value read?
Answer: -1.67

Question: With C14A G94A U109C A122G as the variant, how does the “polymerase ribozyme fitness (log ratio)” value read?
Answer: ≤ -4.2

Question: With C14A G94U A107G as the variant, how does the “polymerase ribozyme fitness (log ratio)” value read?
Answer: ≤ -4.2

Question: With C14A G100A A110U as the variant, how does the “polymerase ribozyme fitness (log ratio)” value read?
Answer: ≤ -4.2

Question: With C14A U15A C36U U55A G70C G80U U102G U111A G140C U148G as the variant, how does the “polymerase ribozyme fitness (log ratio)” value read?
Answer: ≤ -4.2

Question: With C14A U15G A24U U55G G92A C131G as the variant, how does the “polymerase ribozyme fitness (log ratio)” value read?
Answer: ≤ -4.2

Question: With C14A U15G A26U G86U G92U A107U U109A C116A as the variant, how does the “polymerase ribozyme fitness (log ratio)” value read?
Answer: ≤ -4.2

Question: Which “polymerase ribozyme fitness (log ratio)” value does the source give for C14A U15G A37U C79U C93G A106U U144C U145G here?
Answer: ≤ -4.2

Question: For C14A U31A C75G C95U C116A C118U, which “polymerase ribozyme fitness (log ratio)” value is on record?
Answer: ≤ -4.2

Question: For C14A U31G C76A C93G A106C, which “polymerase ribozyme fitness (log ratio)” value is on record?
Answer: ≤ -4.2

Question: For C14A U44A A60G A122G C131G C132G A137C, which “polymerase ribozyme fitness (log ratio)” value is on record?
Answer: ≤ -4.2

Question: For C14A U44A G46A A47C G88U A98G U101G, which “polymerase ribozyme fitness (log ratio)” value is on record?
Answer: ≤ -4.2

Question: With C14A U44G G88A G94U C108A A113U as the variant, how does the “polymerase ribozyme fitness (log ratio)” value read?
Answer: ≤ -4.2

Question: With C14A U45A C54U C75U G94A as the variant, how does the “polymerase ribozyme fitness (log ratio)” value read?
Answer: ≤ -4.2

Question: For C14G, which “polymerase ribozyme fitness (log ratio)” value is on record?
Answer: -2.09

Question: For C14G A16G C38U U61A G94A A122C, which “polymerase ribozyme fitness (log ratio)” value is on record?
Answer: ≤ -4.2

Question: With C14G A16U U33C G48U G59U A60C C85U U101G A120U U144G U148C as the variant, how does the “polymerase ribozyme fitness (log ratio)” value read?
Answer: ≤ -4.2

Question: Which “polymerase ribozyme fitness (log ratio)” value does the source give for C14G A17G A60G G65U C85U A121G U148C here?
Answer: ≤ -4.2

Question: For C14G A17G G68C A120U G152A, which “polymerase ribozyme fitness (log ratio)” value is on record?
Answer: ≤ -4.2

Question: Which “polymerase ribozyme fitness (log ratio)” value does the source give for C14G A17U U53A G81A C85U G92A here?
Answer: ≤ -4.2

Question: For C14G A19C A28C G42A A66G C93U C103U U109A G136C, which “polymerase ribozyme fitness (log ratio)” value is on record?
Answer: ≤ -4.2

Question: For C14G A19C U31C C69G G74A G84U A107G U145A U151C, which “polymerase ribozyme fitness (log ratio)” value is on record?
Answer: ≤ -4.2

Question: With C14G A19G A39C G141A A142C U144G as the variant, how does the “polymerase ribozyme fitness (log ratio)” value read?
Answer: ≤ -4.2

Question: With C14G A19G C76A C85U A91U A115C A150G as the variant, how does the “polymerase ribozyme fitness (log ratio)” value read?
Answer: ≤ -4.2

Question: Which “polymerase ribozyme fitness (log ratio)” value does the source give for C14G A19G C96G U139A G141A here?
Answer: ≤ -4.2

Question: For C14G A19G C108U C118G, which “polymerase ribozyme fitness (log ratio)” value is on record?
Answer: ≤ -4.2

Question: For C14G A19G U44C A52G G83C G124A, which “polymerase ribozyme fitness (log ratio)” value is on record?
Answer: ≤ -4.2

Question: With C14G A19U A28U G62A C93A G136A as the variant, how does the “polymerase ribozyme fitness (log ratio)” value read?
Answer: ≤ -4.2

Question: Which “polymerase ribozyme fitness (log ratio)” value does the source give for C14G A20C G50U U53A G126U U139A here?
Answer: ≤ -4.2

Question: With C14G A20U A21G C36U U53G G58U C85U G136A U146A as the variant, how does the “polymerase ribozyme fitness (log ratio)” value read?
Answer: ≤ -4.2

Question: With C14G A20U A22U A41C C43U C54A C79G U82G G92U A110U C125U C149U as the variant, how does the “polymerase ribozyme fitness (log ratio)” value read?
Answer: ≤ -4.2

Question: With C14G A20U A24U U33G U56A C57G C79U C118G A138U as the variant, how does the “polymerase ribozyme fitness (log ratio)” value read?
Answer: ≤ -4.2

Question: For C14G A20U A41G U44A G67C A110U G136U, which “polymerase ribozyme fitness (log ratio)” value is on record?
Answer: ≤ -4.2

Question: With C14G A20U U33C U56A G92A U109G A138G as the variant, how does the “polymerase ribozyme fitness (log ratio)” value read?
Answer: ≤ -4.2

Question: For C14G A21C A52G C57U A73U C87G A89C C116A, which “polymerase ribozyme fitness (log ratio)” value is on record?
Answer: ≤ -4.2

Question: Which “polymerase ribozyme fitness (log ratio)” value does the source give for C14G A21G G34A A37C G50C C57G A60C A64G here?
Answer: ≤ -4.2

Question: Which “polymerase ribozyme fitness (log ratio)” value does the source give for C14G A21U C54A here?
Answer: ≤ -4.2

Question: For C14G A22C A73U, which “polymerase ribozyme fitness (log ratio)” value is on record?
Answer: -3.92

Question: For C14G A22C C32U C85U A142G U145G, which “polymerase ribozyme fitness (log ratio)” value is on record?
Answer: ≤ -4.2

Question: With C14G A22C C54A G59A C76G C116G U134G as the variant, how does the “polymerase ribozyme fitness (log ratio)” value read?
Answer: ≤ -4.2

Question: For C14G A22C G46A G67C G68C G81U C96G A97C, which “polymerase ribozyme fitness (log ratio)” value is on record?
Answer: ≤ -4.2

Question: Which “polymerase ribozyme fitness (log ratio)” value does the source give for C14G A22G A40C U78C C96U G141U here?
Answer: ≤ -4.2

Question: Which “polymerase ribozyme fitness (log ratio)” value does the source give for C14G A22G G25A A28C G50C G84U U104G here?
Answer: ≤ -4.2

Question: Which “polymerase ribozyme fitness (log ratio)” value does the source give for C14G A22U A40G U90G C93A U148A here?
Answer: ≤ -4.2

Question: For C14G A22U C38U G136C A147C, which “polymerase ribozyme fitness (log ratio)” value is on record?
Answer: ≤ -4.2

Question: Which “polymerase ribozyme fitness (log ratio)” value does the source give for C14G A23C C87A A110G A115U C123U here?
Answer: ≤ -4.2

Question: Which “polymerase ribozyme fitness (log ratio)” value does the source give for C14G A23C U77C A106C here?
Answer: ≤ -4.2

Question: With C14G A23G C38A A52G G94U as the variant, how does the “polymerase ribozyme fitness (log ratio)” value read?
Answer: ≤ -4.2

Question: Which “polymerase ribozyme fitness (log ratio)” value does the source give for C14G A23G C54U A64C C72U G94C C114G U148G here?
Answer: ≤ -4.2

Question: For C14G A23U C54G G67U A142U U151A, which “polymerase ribozyme fitness (log ratio)” value is on record?
Answer: ≤ -4.2

Question: For C14G A23U C57A C85U C95U C116A, which “polymerase ribozyme fitness (log ratio)” value is on record?
Answer: ≤ -4.2

Question: For C14G A24C A26U C32A C35A G112U, which “polymerase ribozyme fitness (log ratio)” value is on record?
Answer: ≤ -4.2

Question: With C14G A24C A26U C36A A73G A107U A119U U144A as the variant, how does the “polymerase ribozyme fitness (log ratio)” value read?
Answer: ≤ -4.2

Question: For C14G A24G A47C G83C C103G C116U, which “polymerase ribozyme fitness (log ratio)” value is on record?
Answer: ≤ -4.2

Question: Which “polymerase ribozyme fitness (log ratio)” value does the source give for C14G A24G A47G A52G U78A here?
Answer: ≤ -4.2

Question: For C14G A24G U31A A49C A52C C54A U56A A73U A89G C99G A107C C149G, which “polymerase ribozyme fitness (log ratio)” value is on record?
Answer: ≤ -4.2

Question: Which “polymerase ribozyme fitness (log ratio)” value does the source give for C14G A24U A26C C36G C54G U61G C103G A106G A142G here?
Answer: ≤ -4.2

Question: Which “polymerase ribozyme fitness (log ratio)” value does the source give for C14G A24U A30U U44A C54A C87U G112U here?
Answer: -4.11

Question: With C14G A24U C27G C32A A39C as the variant, how does the “polymerase ribozyme fitness (log ratio)” value read?
Answer: ≤ -4.2

Question: With C14G A24U C51A C54U C76G A119G C123U U146C as the variant, how does the “polymerase ribozyme fitness (log ratio)” value read?
Answer: ≤ -4.2

Question: For C14G A24U U78A G86U U145G, which “polymerase ribozyme fitness (log ratio)” value is on record?
Answer: ≤ -4.2

Question: With C14G A26C C79A G94U C95A A142G as the variant, how does the “polymerase ribozyme fitness (log ratio)” value read?
Answer: ≤ -4.2

Question: For C14G A26C U31A A49U U55G G100U G126A, which “polymerase ribozyme fitness (log ratio)” value is on record?
Answer: ≤ -4.2

Question: Which “polymerase ribozyme fitness (log ratio)” value does the source give for C14G A26G A47C G58C C72A U145A here?
Answer: ≤ -4.2

Question: Which “polymerase ribozyme fitness (log ratio)” value does the source give for C14G A26U G67A U134G here?
Answer: ≤ -4.2

Question: For C14G A28C A47G U53A G84U, which “polymerase ribozyme fitness (log ratio)” value is on record?
Answer: ≤ -4.2

Question: With C14G A28C G50C C79A C93U U139G G143C as the variant, how does the “polymerase ribozyme fitness (log ratio)” value read?
Answer: ≤ -4.2

Question: For C14G A28G A41C C93U G141A, which “polymerase ribozyme fitness (log ratio)” value is on record?
Answer: ≤ -4.2

Question: For C14G A28U C36G A66C C75U C87A, which “polymerase ribozyme fitness (log ratio)” value is on record?
Answer: ≤ -4.2

Question: For C14G A28U G46A U61A A64C G112A A122G, which “polymerase ribozyme fitness (log ratio)” value is on record?
Answer: ≤ -4.2

Question: With C14G A28U G50A A119C A147U as the variant, how does the “polymerase ribozyme fitness (log ratio)” value read?
Answer: ≤ -4.2

Question: For C14G A29C G62A G84U C99G, which “polymerase ribozyme fitness (log ratio)” value is on record?
Answer: ≤ -4.2

Question: Which “polymerase ribozyme fitness (log ratio)” value does the source give for C14G A29G A37C U77C C95U G141U here?
Answer: ≤ -4.2

Question: Which “polymerase ribozyme fitness (log ratio)” value does the source give for C14G A29G A60G G94C C99U C114U here?
Answer: ≤ -4.2

Question: With C14G A29G C57U G67C G84A C87U C108U G136U as the variant, how does the “polymerase ribozyme fitness (log ratio)” value read?
Answer: ≤ -4.2

Question: With C14G A29G G71C A121G as the variant, how does the “polymerase ribozyme fitness (log ratio)” value read?
Answer: ≤ -4.2

Question: For C14G A29U G68A G81A, which “polymerase ribozyme fitness (log ratio)” value is on record?
Answer: ≤ -4.2

Question: Which “polymerase ribozyme fitness (log ratio)” value does the source give for C14G A30C G50A C76U C87A A107G U111C A120U here?
Answer: ≤ -4.2

Question: Which “polymerase ribozyme fitness (log ratio)” value does the source give for C14G A30G U56A A91U here?
Answer: ≤ -4.2
